From the RNAGym collection of RNA variant scans (doi:10.7554/elife.90254)
Read counts are not given, so values of variants with three or more changes are uncertain.

B1: LINE1-mini (parent)
chain: GGCAGAGCUCAACACAGCGUGGCAAAGUGGCUGUGGCUAGACUGCC

Variants of: B1
Experiment: self-cleavage, relative activity (ratio to wild type); higher = more cleavage; in vitro, sequencing; the parent is a self-cleaving ribozyme

| Variant | self-cleavage |
| --- | --- |
| GGCAGAGCUCAACCCAGCGUGGCAAAGUGUCUGUGGCUAGAAUGCC | 0.06 |
| GGCAGAGCUCAACUCCGCGUGGCAAAGUGGCUGUGGCUAGACUGCU | 0.04 |
| GGCAGAGCUCAACUGAGCGUGUCAAAGUGGAUGUGGCUAGACUGCC | 0.06 |
| GGCAGAGCUCAACUCAGUGUGGCCAAGUGGCUGUGGCUAGACUGCC | 0.31 |
| GGCAGAGCUCAACUCAGCGUGGCAAAGUGGCUGUGGGUAGAUUGCC | 0.01 |
| GGCAGAGCUCAACGCAGCGUUGCAAAGUGGCUGUGGGUAGACUGCC | 0.03 |
| GGCAGAGCUCAACGCAGCGUGGCAAAGGGGCUGUGACUAGACUGCC | 1.29 |
| GGCAGAGCUCAACUCAGGGUUGCAAAGUGGCCGCGGCUAGACUGGC | 0.01 |
| GGCAGAGCUCAACUAAGCGUGGCAAUGUGGUUGUGGCUGGCCUACC | 0.02 |
| GGCAGAGCUCAACCCAGCGUGGCAAAGCGGCUCUGGCUUGACUGCC | 0 |
| GGCAGAGCUCAACGCAUCGUGGCAAAGUGGCUGUGUCUAGACUGCC | 0.02 |
| GGCAGAGCUCAACGCGGCGCGGCAAAGUGGCUGUGGCUAGACUGCC | 0.12 |
| GGCAGAGCUCAACGCAGCGUGGCAAAGUGGCUGUGUUUCGACUGCC | 0.03 |
| GGCAGAGCUCAACCCAGCGUGGCAAAGUGGCAGGGGCUAGACUGCC | 0.03 |
| GGCAGAGCUCAACGCAGCGUGGAAAAGUAGCUAUGGCUAGACUGCC | 0.1 |
| GGCAGAGCUCAACGCAGCGUGGCAGAGUGGCUGAGGCUAGACUGCC | 0.02 |
| GGCAGAGCUCAACUCAGUGUAGCAAAGUGGCUGUGGCUAGACUGCC | 0.34 |
| GGCAGAGCUCAACUCAGCGUGGAUAAGUGGCUGUGGCUAGACUGCC | 0.17 |
| GGCAGAGCUCAACGCAGCGAGUCAAAGUGGUUGUGGCUUGAGUGCC | 0.15 |

| Variant | self-cleavage |
| --- | --- |
| GGCAGAGCUCAACGCAGCGUGGAAAAGUGGCUGUGGCUUGACUGCC | 0.07 |
| GGCAGAGCUCAACUCAGCGUGGCAUAGUCGCUGUGGCUAGACUGCC | 0.54 |
| GGCAGAGCUCAACGCACCGUUUCAAAGUGGCUGUGGCUAGACUGCC | 0.08 |
| GGCAGAGCUCAACUCAGCGUGGCCAAGUUGCCGUGGCCAGACUGCC | 0.3 |
| GGCAGAGCUCAACUCAGCGUGGCAUAGUGGCUGUGGCUAGAAUGCC | 0.02 |
| GGCAGAGCUCAACGCAGCGUGGCAAAGUAGCUGUGGCUAGACUGCU | 0.4 |
| GGCAGAGCUCAACUCAGCGUGGUAAAGUGGCUCUGGCUAGACCGCC | 0 |
| GGCAGAGCUCAACGCAGCGUGGCAAAGUUGCUGUGGCGAGACUGCC | 0.04 |
| GGCAGAGCUCAACGCAGCGUGGCUAAGUGGCUGUGGGUAGACUGCC | 0.01 |
| GGCAGAGCUCAACCCAGCGCGGCAGAGUGCAUGUGGCUAGAUUGCC | 0.01 |
| GGCAGAGCUCAACGCUGCGUGGCGAAGUGGCUGCGGCUAGACUGCC | 0.05 |
| GGCAGAGCUCAACUCAACGCGGCAAAGUGCCUGUGCCUAGACUGCC | 0.09 |
| GGCAGAGCUCAACGUAGCGUGGCAGAGUGGCUGUGGCGAGACUGCC | 0.05 |
| GGCAGAGCUCAACGCAGCGUGGCAAAGUGGAUGUGGCUAAACUGCC | 0.05 |
| GGCAGAGCUCAACGCAGCGUGGCAGAGUGGCUGUGGCUAGACCGCC | 0.06 |
| GGCAGAGCUCAACUAAGCGUGGCAAAGUGGCUGUGGCUAAACUGCC | 0.05 |
| GGCAGAGCUCAACUCAGCGUGGAAAAGUGGCUGUGGCUAUACUGCC | 0.13 |
| GGCAGAGCUCAACGCAGCGUGGCAAAUUGGCUGUGGCUAGACUGCA | 0.03 |
| GGCAGAGCUCAACUCAGCGUGGCAAAGUGGGUGUGGAUAGACUGCC | 0.06 |

| Variant | self-cleavage |
| --- | --- |
| GGCAGAGCUCAACCCAGCGAGGCAGAGUGGCUGUGGCUAGACUGCA | 0 |
| GGCAGAGCUCAACGCAGCGUGGCUAAGUGGCUGCGGCUAGACUGCC | 0.15 |
| GGCAGAGCUCAACGUAGCGUGGCAAAGUGGCUGUGGCUAGAAUGCC | 0.07 |
| GGCAGAGCUCAACGCAGCGUGGCAAAGUCGCUGUGGCUAGUCUGCC | 0.18 |
| GGCAGAGCUCAACGCAGCGUGGCAGAGUGGCUGUGGCUAGACUCCC | 0.11 |
| GGCAGAGCUCAACGCGGCGUGGCAAAGUGGCUGUGGCUAGAAUGCU | 0.03 |
| GGCAGAGCUCAACGCAGCGGGGCAAAGUGGCCGUGCCUCGACUGCC | 0.03 |
| GGCAGAGCUCAACGAAGCGUGGCAAAGUGGCUAUGGCUAGACUGAC | 0.06 |
| GGCAGAGCUCAACGCAGCGUGGCAACGUGUCUGUUGCUAGACUGCC | 0.09 |
| GGCAGAGCUCAACGCAGCGUGGCAAAGUGGAUGUGGCUAGACUGCA | 0.06 |
| GGCAGAGCUCAACUCAGCGUGGCAAAGUGGAUGUAGCUAGAUUGCC | 0.02 |
| GGCAGAGCUCAACGCAGCGUGGCAAAGUGGAUGUGGCUAGACAGCC | 0.12 |
| GGCAGAGCUCAACGCAGCGUGGCAAAGUGGCUGUGGCUAAACUGGC | 0.56 |
| GGCAGAGCUCAACGCAGCGUGGCAAAGUGGCUGUGGAUAUACUGCC | 0.08 |
| GGCAGAGCUCAACGCAGCGUGGCAAAGUGGCUGUGGAUACACUGCC | 0.24 |
| GGCAGAGCUCAACUCAGUGUGGCAGAGUCGGUGUGGCUAGACUGCC | 0.01 |
| GGCAGAGCUCAACGCAGCGUGGCAAAGUGGGUGUGGCUAGAGUGCC | 0.01 |
| GGCAGAGCUCAACGCAGCGUGACCAAUUGACUGUCGCUAGGCUGCA | 0.45 |
